Article PMC4336329 (PLoS ONE, 2015)
Screen size: about 310,000 compounds; about 14,000 (4.5%) showed an effect of 50% or more. The effect is printed as a negative number. The list shows a part of the results.

target: human ether-à-go-go-related gene (hERG) potassium channel (human, UniProt Q12809); assay: primary screen, population patch clamp on CHO cells stably expressing hERG
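Note: peak tail current of the secondary pulse compared with the same well before compound.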

Chain of human ether-à-go-go-related gene (hERG) potassium channel (Q12809 whole entry, looked up): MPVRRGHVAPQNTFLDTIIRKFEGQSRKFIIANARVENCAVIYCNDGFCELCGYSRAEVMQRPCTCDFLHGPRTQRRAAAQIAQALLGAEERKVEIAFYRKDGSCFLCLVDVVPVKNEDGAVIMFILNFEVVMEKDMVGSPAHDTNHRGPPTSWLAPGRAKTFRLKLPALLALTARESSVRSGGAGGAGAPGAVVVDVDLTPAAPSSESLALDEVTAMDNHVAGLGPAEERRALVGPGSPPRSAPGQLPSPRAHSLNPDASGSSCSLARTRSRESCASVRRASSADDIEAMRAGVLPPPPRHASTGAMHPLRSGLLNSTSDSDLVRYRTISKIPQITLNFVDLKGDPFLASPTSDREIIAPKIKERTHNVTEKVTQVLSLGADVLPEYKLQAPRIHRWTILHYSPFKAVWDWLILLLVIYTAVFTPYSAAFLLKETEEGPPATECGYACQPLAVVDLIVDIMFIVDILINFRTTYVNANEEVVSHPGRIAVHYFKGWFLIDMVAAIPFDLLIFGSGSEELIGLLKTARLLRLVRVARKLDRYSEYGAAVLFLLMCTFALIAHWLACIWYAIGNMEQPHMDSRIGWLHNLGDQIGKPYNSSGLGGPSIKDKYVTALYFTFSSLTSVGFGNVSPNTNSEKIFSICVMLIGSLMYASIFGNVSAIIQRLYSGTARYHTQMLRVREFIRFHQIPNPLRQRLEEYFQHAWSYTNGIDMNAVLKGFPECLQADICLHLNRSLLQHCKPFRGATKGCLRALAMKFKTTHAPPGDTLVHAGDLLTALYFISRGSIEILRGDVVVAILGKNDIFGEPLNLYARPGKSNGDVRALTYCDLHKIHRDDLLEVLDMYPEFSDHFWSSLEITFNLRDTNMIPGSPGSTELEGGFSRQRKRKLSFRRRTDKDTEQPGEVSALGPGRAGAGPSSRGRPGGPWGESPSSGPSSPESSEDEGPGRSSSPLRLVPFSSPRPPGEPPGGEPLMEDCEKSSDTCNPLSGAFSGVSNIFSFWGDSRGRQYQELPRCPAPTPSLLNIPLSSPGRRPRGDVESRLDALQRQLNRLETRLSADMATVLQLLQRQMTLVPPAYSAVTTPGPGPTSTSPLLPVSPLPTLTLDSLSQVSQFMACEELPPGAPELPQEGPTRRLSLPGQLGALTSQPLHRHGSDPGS

Row | Structure (SMILES) | hERG current change (%, negative = inhibition) at 10uM
1 | Cc1ccc(-c2cc(-c3ccc(Cl)cc3)c(C#N)c(N)n2)o1 | -8.33%
2 | O=C(CCCN1C(=O)S/C(=C/C=C/c2ccccc2)C1=O)Nc1ccc(C(=O)O)cc1 | 15%
3 | CN(C)S(=O)(=O)c1ccc(NC(=O)C2CC(=O)N(Cc3ccccc3)C2)cc1 (stereo not shown) | 14.9%
4 | COc1ccc(CCN2CC(C(=O)Nc3nnc(Cc4ccccc4)s3)CC2=O)cc1OC (stereo not shown) | -5.35%
5 | CCN1C(=O)CS/C1=C(\C#N)S(=O)(=O)c1ccccc1 | 8.57%
6 | O=C(Nc1ccc(C(=O)N2CCCCC2)cc1)c1ccccc1Cl | -14.3%
7 | CCOC(=O)CNC(=O)C1(/C=C/c2ccccc2)CC(=O)N1c1ccc(OC)cc1 (stereo not shown) | -11.1%
8 | CCCCn1c(N)c(N(CC)C(=O)c2ccccc2F)c(=O)[nH]c1=O | 27.9%
9 | Cc1ccccc1Cn1c2ccccc2c2cnn(CC(=O)NCc3ccco3)c(=O)c21 | 10.9%
10 | CC(=O)OC[C@H]1O[C@H](C/C=N/O[C@@H](C)c2cn([C@H](CO)Cc3ccccc3)nn2)C=C[C@@H]1OC(C)=O | 3.92%
11 | COc1ccc(Oc2ccc(N/C=C3\CCCC3=O)cc2)cc1 | 4.18%
12 | COC(=O)c1ccc(NC(=O)CSc2nn3c(=O)c(C)nnc3s2)cc1 | 7.44%
13 | CC(=O)N=c1c(C#N)cc2c(=O)n3cccc(C)c3nc2n1CCCOC(C)C | -50.4%
14 | CCOC(=O)N1CCN(S(=O)(=O)c2cc(C)c(C)cc2C)CC1 | -3.19%
15 | Cc1nc2sc(C(c3cccs3)N3CCN(C(=O)c4ccco4)CC3)c(O)n2n1 (stereo not shown) | -2.77%
16 | CO/N=C(\c1nonc1N)N1CCN(c2ccc([N+](=O)[O-])cc2Cl)CC1 | 1.73%
17 | N#Cc1c(Nc2ccccc2)c(/C=N/NCCO)c[nH]c1=O | 18.2%
18 | Cc1c(Cl)c([N+](=O)[O-])nn1CCCC(=O)Nc1cccc(O)c1 | -10.8%
19 | CCCCC(=O)Nc1ccc(NC(=O)c2ccccc2OC)cn1 | -8.77%
20 | CC1CCc2sc(C(=O)NN)cc2C1 (stereo not shown) | 21.1%
21 | Cc1ccc(NC(=O)C2CCN(c3cnccn3)CC2)cc1 | 34.8%
22 | COc1ccc(O[C@H]2C=C[C@@H](c3ccccc3)O[C@@H]2COC(=O)CC/C(C)=N/OC[C@@H](O)COCc2ccco2)cc1 | -11.3%

Row | Structure (SMILES) | hERG current change (%, negative = inhibition) at 10uM
23 | Cc1cccc(N2CCN(C(C)C(=O)N3CCc4ccccc43)CC2)c1C (stereo not shown) | 17%
24 | COC(=O)/C=C1\SC(=NC(=O)c2cccc([N+](=O)[O-])c2)NC1=O | 10.5%
25 | CC(=O)c1ccc(S(=O)(=O)Nc2cccc(-c3ccc4nncn4n3)c2)cc1 | 5.07%
26 | CC(=O)C1[C@H](N(C)C)CC2C3CC=C4CC(O)CC[C@]4(C)C3CC[C@@]21C (stereo partly shown) | 5.3%
27 | COc1cc([N+](=O)[O-])ccc1NC(=O)COC(=O)CCOc1ccc(C)cc1 | -11.2%
28 | Cc1c(C(=O)O)cccc1-n1c(C)cc(/C=C2\C(=O)NC(=O)N(c3ccc4c(c3)OCO4)C2=O)c1C | 11.9%
29 | COc1ccc(/C=N/NC(=O)Cc2cccs2)cc1 | -20.7%
30 | COC(=O)CCc1c(COC(C)=O)[nH]c(C(=O)OCc2ccccc2)c1C | -2.7%
31 | Cc1cccc(N2CCN(C(=O)c3csc4ccccc34)CC2C)c1 (stereo not shown) | -13%
32 | O=C1OC(C(=O)Nc2ccccc2)Cc2ccccc21 (stereo not shown) | 14.5%
33 | O=C(CSc1ncn[nH]1)Nc1ccccc1C(=O)O | 3.1%
34 | COc1ccc(-c2nn(-c3ccccc3)cc2/C=N/Nc2ccccn2)cc1OC | 4.92%
35 | COC(=O)c1ccccc1NC(=O)CSc1n[nH]c(-c2ccncc2)n1 | 6.6%
36 | Cc1noc(C)c1COc1ccc(CC(=O)NCCc2ccccc2)cc1 | 6.93%
37 | Cc1nnc(C)c2c(C)n(C(c3ccccc3)c3ccccc3)c(C)c12 | -71.4%
38 | Cc1nc(NCc2ccccn2)c2c3c(sc2n1)CCCC3 | -28.6%
39 | COc1ccc(N2CC(C(=O)N[C@@H](C)C(=O)NC(C)c3ccccc3)CC2=O)cc1 (stereo partly shown) | 7.6%
40 | Cc1cc(C)cc(NC(=O)CN2C(=O)COc3ccc(S(=O)(=O)N4CCCC4)cc32)c1 | 9.24%
41 | COC(=O)c1ccccc1OCC(=O)N1CCN(c2ccc(F)cc2)CC1 | -44.9%
42 | COC(=O)C1=C(C)N(Cc2ccccc2)C(=O)N[C@H]1CCc1ccccc1 | 5.81%
43 | O=C(Nc1ccc(Cl)cc1)Nc1ccc2c(c1)OCO2 | 17.6%
